ChEMBL document CHEMBL4888484, “Replenishing the malaria drug discovery pipeline: Screening and hit evaluation of the MMV Hit Generation Library 1 (HGL1) against asexual blood stage Plasmodium falciparum ,using a nano luciferase reporter read-out” (2022)
The whole screen tested about 150,000 compounds, of which about 540 (0.36%) showed an effect of 50% or more. The list shows a part of the results.

Test system: Plasmodium falciparum
Assay: Primary screen in NF54 nanoGlo assay, in single point, at 2uM, 72h; a lower Z score goes with more inhibition
Format: functional, Erythrocyte
Settings: timepoint 72 hour

Compound | % Inhibition [%] | Z score
c1ccc2c(CNc3nc4ccccc4n3CCN3CCOCC3)cccc2c1 | -8 | 0.69
COCCC(C)NC(=O)C(C)Oc1ccccc1Br (stereo not drawn) | -12 | 1.12
CCCc1nc(N[C@H]2CN(C(C)C)C[C@@H]2OC)c2cnn(C)c2n1 | -2 | 0.24
O=C(O)COc1ccc(CN2CCO[C@H]3CCCC[C@@H]32)cc1 | -11 | 2.04
CN1N=C(C(=O)Nc2cccc3c2CCCC3)CCC1=O | -14 | 1.23
CCCC(=O)OC[C@@H](O)CN(Cc1ccccc1)Cc1cccn1Cc1ccc(C(C)(C)C)cc1 | -7 | 1.25
Cn1c(=O)c2c(ncn2CC(=O)N2CC(n3cc(-c4ccccc4)nn3)C2)n(C)c1=O | -20 | 3.49
COc1ncccc1C(=O)Nc1cc(Br)c(=O)n(C)c1 | 0 | -0.03
COc1ccccc1-c1n[nH]cc1CN1CC(F)(F)C[C@H]1CN1CCCCCC1 | -7 | 1.23
O=S(=O)(c1ccc(Cl)s1)N1CCC(Oc2cccnn2)CC1 | -10 | 1.9
COCCN1C[C@H]2CN(Cc3ccccc3C)CCN2C1=O | -13 | 1.95
CN(C(=O)c1cc(-c2ccccc2)c(N2CCOCC2)s1)C1(C#N)CCC1 | -9 | 1.01
CCc1cc2c(NC(c3ccccc3)C3CCCO3)ncnc2s1 (stereo not drawn) | -8 | 0.94
COC(=O)[C@@H](C)NC(=O)[C@H]1CN(S(=O)(=O)c2ccccc2)CCN1C(C)=O | 0 | 0.07
O=C(c1cnn2cccnc12)N(Cc1ccccc1)c1ccccc1 | -22 | 3
Cc1nc(COC(=O)c2c[nH]nc2-c2c(F)cccc2F)no1 | 32 | -0.69
CS(=O)(=O)CCNC(=O)Nc1snc2ccccc12 | -6 | 1.14
CCn1cc(S(=O)(=O)N2CCCCCCNC(=O)[C@@H]3CCCC[C@@H]32)cn1 | -6 | 0.7
O=C(NCCn1nc(-c2ccncc2)ccc1=O)Nc1ccccc1 | -13 | 2.16
CCNc1ccnc(N[C@H]2CCN(C(C)(C)C)C2)n1 | -18 | 3.04
Cc1ccc(-c2cn3c(n2)CO[C@@H](CNC(=O)c2ccccc2)C3)cc1 | 1 | -0.09

Compound | % Inhibition [%] | Z score
O=C(CCCN1CCCCC1)NCc1csc(N2CCOCC2)n1 | -17 | 1.55
COCCNC(=O)Cn1nc(C)c2sc(-c3ccccc3)nc2c1=O | -10 | 1.39
Cc1cccc2ncnc(N3CCC4(CCOCC4)[C@@H]3C)c12 | -4 | 0.56
COCC1(CNC(=O)[C@H]2CCOC2)CCC1 | -12 | 2.12
O=C(Nc1nc(CN2CCCCCC2)cs1)c1occc1-c1ccccc1 | 1 | -0.08
C[C@H]1C(=O)NCC2(COC2)N1S(=O)(=O)c1cc(F)cc(Cl)c1 | -7 | 1.38
CCC(=O)Nc1ccc2c(c1)cc(C(=O)NCCN1CCOCC1)n2Cc1ccc(F)cc1 | -2 | 0.31
Cc1ccc(-c2noc(-c3ccccc3S(=O)(=O)NCc3cccs3)n2)cc1 | 5 | -0.61
Cc1ccc(-c2nc3nc(C)c(CC(=O)NCc4ccccc4)c(C)n3n2)cc1 | -6 | 0.92
C=CCCO[C@@H](C)C(=O)N1CCCN(C(=O)CCc2ccc(OC)cc2)CC1 | 1 | -0.17
N#Cc1ccc(N2CCN3C(=O)C(=O)NC[C@H]3C2)nc1 | -3 | 0.44
CCCCn1nc(Cc2ccccc2OC)nc1[C@@H]1CCC(=O)N1 | 2 | -0.38
O=C(Nc1ccccc1)N1CCCCCCC1 | 5 | -0.53
CC(C)(C)N1CC(NC(=O)CCCC2C(=O)Nc3ccccc32)CC1=O (stereo not drawn) | 2 | -0.21
Cc1noc(C)c1S(=O)(=O)N1C[C@H]2CCCC(=O)N[C@H]2C1 | 35 | -3.96
CC(=O)N1C[C@@H]2C[C@@H](O)CN2C2(CN(Cc3ccccc3F)C2)C1 | -10 | 1.51
Cc1ccc(-c2nnc(CCC(=O)NCC(C)(C)CN(C)C)o2)s1 | -10 | 1.24
CC(C)CC[C@]1(C)NC(=O)N(Cc2nnc(-c3ccc(Br)cc3)o2)C1=O | -4 | 0.53
Cc1cc(C)c(NC(=O)CCN2CCC[C@H]2c2nc(-c3ccncc3)no2)c(C)c1 | 0 | 0.02
CCCO[C@H]1CCCN(c2noc(C3CC3)n2)C1 | 0 | 0.07
COCCC(=O)Nc1nn(-c2cccc(F)c2)c2cccc(N3CCOC3=O)c12 | -3 | 0.41

Compound | % Inhibition [%] | Z score
CCOC(=O)[C@H](NCC(=O)Nc1cccc(N2CCCC2=O)c1)c1cccc2ccccc12 | -18 | 2.06
CC(C)=CCC/C(C)=C/CN1CCc2[nH]cnc2[C@@H]1C(=O)O | -9 | 1.83
Cc1cc(CC(=O)N2CCC([C@H](O)c3cccs3)CC2)on1 | -3 | 0.47
FC(F)Cn1cc(NCc2noc3c2COCC3)cn1 | -9 | 1.55
CCCn1nccc1-c1nccc(OCC)n1 | -14 | 1.36
c1cncc(CN2CCN(c3ncnc4[nH]ncc34)CC2)c1 | -11 | 0.91
CCO[C@H]1COC[C@@H]1Nc1nnc2ccccn12 | -8 | 1.63
Cc1nn(-c2ccc(C#N)cc2)c(NC(=O)CC2CCC(C)C2)c1C (stereo not drawn) | 2 | -0.34
c1ccc(CCN2C[C@@H]3CC[C@H]2CN(Cc2cscn2)C3)cc1 | 0 | 0.04
Cc1cc(C(=O)N2Cc3cccnc3C2)ccc1OC(F)(F)F | -8 | 0.96
Cc1c([C@H]2CC2(C)C)nc(N)c(C#N)c1-c1ccc(CO)o1 | 0 | 0.04
O=C([C@H]1C[C@H]2C=C[C@@H]1C2)N(Cc1cccnc1)Cc1ccc2c(c1)OCO2 | 4 | -0.49
CC(C)c1nnc(CS(=O)(=O)Cc2ccn(-c3ccccc3)n2)o1 | -13 | 1.56
N#Cc1ccc(OCCOc2cccc(-c3nnco3)c2)cc1 | -11 | 1.44
CCc1ccc(C(=O)N(Cc2ccncc2)Cc2cccnc2)o1 | -6 | 0.92
CC(C)(C)OC(=O)N1C[C@@H]2C[C@H]1C(=O)NC[C@H]1O[C@H](CCOc3ccccc3C(=O)N2)CC[C@@H]1O | 25 | -2.86
O=C(NCCc1cnn(-c2ccccc2)c1)c1ccncc1O | -11 | 1.51
CC(C)=CCN1C(=O)[C@@H]2CC[C@H]1CN(C(=O)c1ccc(C)c(Cl)c1)C2 | -21 | 2.24
CC1(C)Cc2cc(C(=O)N[C@H]3CCOC34CCOCC4)ccc2O1 | -10 | 1.56
CC(C)(C)C1CCN(S(=O)(=O)N[C@@H]2C=C[C@H](CO)C2)CC1 | -3 | 0.28
Cc1ncsc1C(=O)OCc1ccccc1 | 2 | -0.22

Compound | % Inhibition [%] | Z score
CC[C@H](O)c1cc2n(n1)CCN(c1ccc(-c3nccn3C)nn1)C2 | -13 | 2.32
O=C(Nc1ccc(-c2cc[nH]n2)cc1)C1CCC1 | -21 | 1.9
O=C(NCCN1CCOCC1)C1Cc2cc(C(F)(F)F)ccc2N2CCN(C(=O)c3ccco3)CC12 (stereo not drawn) | -9 | 1.23
N#Cc1ccc(N2CCN(S(=O)(=O)c3cc(Cl)cnc3N)CC2)cn1 | -8 | 1.18
CC1=NO[C@@H](CNC(=O)c2cccc(C)c2)C1 | -1 | 0.12
COC(=O)[C@@]1(C)CCN(C(=O)NCCc2c[nH]c3ccc(F)cc23)C1 | -13 | 1.81
COc1cc(-c2c(C#N)c(N)nc(C)c2-c2ccccc2)cc(OC)c1OC | 0 | 0.01
Cc1cc2c(cc1S(=O)(=O)N1CCC[C@H](C(=O)N3CC(=O)Nc4ccccc43)C1)OCC(=O)N2 | -11 | 2.12
O=C(O)CCc1cc2n(n1)CCN(C[C@@H]1CC=CCC1)C2 | 1 | -0.2
CCCC[C@H](C)C(=O)Nc1ncc(C#N)s1 | -9 | 1.36
OC[C@@]1(CCOc2ccccc2)CCCN(c2ncnc3[nH]cnc23)C1 | -4 | 0.76
Cc1c(C(=O)NCC(=O)N2CCCC2)[nH]c2c(F)cccc12 | -16 | 2.03
CC[C@H]1C(=O)NCCCN1Cc1cc(O)ccc1Cl | -5 | 0.76
Cc1n[nH]c(C)c1NC(=O)Nc1cccc(N(C)C(C)C)c1 | -3 | 0.47
COc1cccc([C@@H](NCc2c3c(nn2C)CCCC3)C2CC2)c1 | 0 | 0.02
Cc1c[nH]c(CN(C)C(=O)C[C@@H](c2cccc(O)c2)c2ccccc2Cl)n1 | -5 | 0.97
CN1c2cc(C(=O)NC3CCCCC3)ccc2C(=O)N2CCC[C@@H]21 | 6 | -0.83
Cn1c(-c2c(-c3ccccc3)ncn2CCOCCO)cc2ccccc21 | -12 | 1.38
Cc1ccc(NC(=O)Cn2ccc3ccc(-c4nnc(C)o4)cc32)cc1 | -3 | 0.31
COc1cc(Cl)c(CN(C)Cc2noc(C3CC3)n2)c(OC)c1 | -11 | 1.62
CCCCNCc1cccn1CCN1CCOCC1 | -1 | 0.09
